The source of these data is US20240301046A1 (MABWELL THERAPEUTICS, published 2024).

Like-named read-outs stand apart in the source and are kept apart here.

As usually defined, the EC50 is the concentration giving half of the maximal effect.

In experiment [1] the target is T1, biotin-labelled Aβ1-40 monomer (AnaSpec, AS-61483-01) (UniProt P05067 partial chain, biotin label, position not stated).
T1 construct: domain: Aβ1-40; also called biotin-conjugated Aβ40 monomer; biotin-Aβ monomer
The experiment in a line: capture ELISA, coated antibody, biotin-Aβ1-40 monomer. The method, then:
A 96-well plate was coated with 5 μg/mL of antibodies overnight at RT. The plate was then treated with diluents of biotin-labelled Aβ₁₋₄₀ monomers (AnaSpec, AS-61483-01, 4-fold serial dilutions with concentrations in the range of 0-1000 nM) for 1 h at RT. The binding of biotin-labelled Aβ₁₋₄₀ monomers with immobilized antibody was detected by HRP-conjugated streptavidin and TMB, as described in Example 2.

Experiment [2] deals with HiLyte488 labelled Aβ1-42 protofibrils (UniProt P05067 partial chain, HiLyte488 fluorophore on part of the peptides (labelled and unlabelled Aβ1-42 monomers mixed 1:5)). Kind of experiment: cell-based or functional assay.
Experiment [3] addresses T2, Aβ1-42 (rPeptide, A-1167-2) (UniProt P05067 partial chain).
T2 construct: domain: Aβ1-42; also called Abeta 1-42
The experiment in a line: direct ELISA, coated Aβ1-42. The method, then:
(§1) Direct ELISA was used to test each antibody's affinity for Aβ₁₋₄₂ and pyroglutamate-modified Aβ (Aβₚ₃₋₄₂). Plates were coated with 0.5 μM of Aβ₁₋₄₂ (rPeptide, A-1167-2) or Aβₚ₃₋₄₂ (AnaSpec, AS-29907-01) for 2 h at 4° C. Diluents of antibodies (3-fold serial dilutions with concentrations in the range of 0-100 nM) were added to the plate for 1 h at RT. Binding of antibody to immobilized Aβ on each plate was detected by HRP-labeled secondary antibody and TMB substrate, as described in Example 2.
(In general: An ELISA detects its analyte on a solid surface through an enzyme-linked reagent.)

Experiment [4] deals with T3, pyroglutamate-modified Aβ (Aβp3-42) (AnaSpec, AS-29907-01) (UniProt P05067 partial chain, pyroglutamate at Aβ position 3 (the N-terminus)).
T3 construct: domain: Aβp3-42; also called Abeta p3-42
The experiment in a line: direct ELISA, coated Aβp3-42.

Experiment [5] deals with T1, biotin-labelled Aβ1-40 monomer …. Kind of experiment: capture ELISA, coated antibody, biotin-Aβ1-40 monomer. This is another data set of the same source.
Experiment [6] concerns the target T2, Aβ1-42 (rPeptide, A-1167-2). Kind of experiment: direct ELISA, coated Aβ1-42. This is another data set of the same source.
Experiment [7] shares this target. Kind of experiment: direct ELISA, coated Aβ1-42. This is another data set of the same source.
In experiment [8] the target is T3, pyroglutamate-modified Aβ (Aβp3-42) …. Kind of experiment: direct ELISA, coated Aβp3-42. The method, then:
as §1
The source holds these as a separate data set.

Another experiment has as its target T4, Aβ1-42 protofibril (UniProt P05067 partial chain).
T4 construct: domain: Aβ1-42; soluble multimer of Aβ1-42; also called Aβ protofibril; Aβ protofibrils
Kind of experiment: ratio of competitive ELISA IC50s, monomer as reference. From the text:
The binding was detected by HRP-labeled secondary antibody and TMB substrate, as described in Example 2.

B1: 21K12A (antibody, V domains shown)
VH: [letters of about 100 residues with changes not shown]GYGEGYWGQGTLVTVSS
VL: QSVLTQPPSASGTPGQRVTISCSGSSSNIKSNTVNWYQQLPGTAPKLLIYRNNQRPSGVPDRFSGSKSGTSASLAISGLQSEDEADYYCAAWDDSLKGVVFGGGTDLTVL
As for B1, the 50% effective concentration (EC50) in [1] came out at 0.87 nM; in [3] it was 0.037 nM. Besides, in experiment [2], the “ADCP (RFU)” value came out at 524000 RFU.

B2: 06E17A(hIgG1) (antibody, V domains shown)
VH: [letters of about 100 residues with changes not shown]GYGEGYWGQGTLVTVSS
VL: QSVLTQPPSASGTPGQRVTISCSGSSSNIKSNTVNWYQQLPGTAPKLLIYRNNQRPSGVPDRFSGSKSGTSASLAISGLQSEDEADYYCAAWDDSLKGVVFGGGTDLTVL
notes: fully human IgG1 lambda, expressed in CHO cells; its lambda constant region is not tied to a number; also called Fully human 06E17A
As for B2, the concentration giving a half-maximal response (EC50) came to 321 nM in experiment [4], 0.15 nM in experiment [5] and 0.062 nM in [6].

B3: 22D04A (mIgG1) (antibody, V domains shown)
VH: [letters of about 100 residues with changes not shown]GYGEGYWGQGTLVTVSS
VL: QSVLTQPPSASGTPGQRVTISCSGSSSNIKSNTVNWYQQLPGTAPKLLIYRNNQRPSGVPDRFSGSKSGTSASLAISGLQSEDEADYYCAAWDDSLKGVVFGGGTDLTVL
notes: chimeric: fully human F(ab')2, mouse IgG1 CH2-CH3; also called 22D4A; Chimeric mouse 22D04A (mlgG1)
For B3, the EC50 in [7] is less than 0.1 nM; in [1] it was 1.05 nM; in experiment [8] it was greater than 50 nM; in experiment [3], 0.035 nM; in experiment [4] it was 51.2 nM; in [5], 1 nM. Besides, the EC50 in experiment [6] worked out at 0.035 nM. The “ADCP (RFU)” value in [2] came out at 547000 RFU. For the same molecule, in the experiment with Aβ1-42 protofibril, the “ratio of IC50 monomer to IC50 protofibril” value is greater than 300 fold.

B4: 06E17A (mIgG1) (antibody, V domains shown)
VH: [letters of about 100 residues with changes not shown]GYGEGYWGQGTLVTVSS
VL: QSVLTQPPSASGTPGQRVTISCSGSSSNIKSNTVNWYQQLPGTAPKLLIYRNNQRPSGVPDRFSGSKSGTSASLAISGLQSEDEADYYCAAWDDSLKGVVFGGGTDLTVL
notes: chimeric: fully human F(ab')2, mouse IgG1 CH2-CH3; also called Chimeric mouse 06E17A (mlgG1)
Turning to B4, the 50% effective concentration (EC50) in experiment [7] is less than 0.1 nM; in [1], 0.02 nM; in [8], greater than 50 nM; in experiment [3], 0.052 nM; in [5], 0.02 nM; in experiment [6], 0.052 nM. The “ADCP (RFU)” value in experiment [2] came out at 301000 RFU. Also, the “ratio of IC50 monomer to IC50 protofibril” value with Aβ1-42 protofibril is greater than 300 fold.

B5: 21P22A (antibody, V domains shown)
VH: not shown
VL: QSVLTQPPSASGTPGQRVTISCSGSSSNIKSNTVNWYQQLPGTAPKLLIYRNNQRPSGVPDRFSGSKSGTSASLAISGLQSEDEADYYCAAWDDSLKGVVFGGGTDLTVL
Take B5: in experiment [1], the EC50 came out at 1.18 nM. In addition, in experiment [2], the “ADCP (RFU)” value was 502000 RFU.

B6: 22D04A(hIgG1) (antibody, V domains shown)
VH: [letters of about 100 residues not shown]GYGEGYWGQGTLVTVSS
VL: QSVLTQPPSASGTPGQRVTISCSGSSSNIKSNTVNWYQQLPGTAPKLLIYRNNQRPSGVPDRFSGSKSGTSASLAISGLQSEDEADYYCAAWDDSLKGVVFGGGTDLTVLG
notes: fully human IgG1 lambda, expressed in CHO cells; also called Fully human 22D04A
B6: the EC50 in experiment [4] stood at 18.5 nM; in experiment [5], 0.2 nM; in experiment [6] it was 0.065 nM.
